# Reference: PubChem BioAssay AID1347073 (National Center for Advancing Translational Sciences (NCATS), 2019)
# Out of some 45,000 compounds screened, about 200 (0.44%) were called active. Inconclusive results (about 7%) are left out. The call rests on the fitted dose curve; in most records, active means well fitted activation curve with a large enough effect; inconclusive means small, poorly fitted or top-dose-only effect; inactive means no such curve, though single readings can be large or run the other way. Some of the results follow.
# Test: qHTS of TDP-43 Inhibitors: NCGC Sytravon Library Screen; further: 0% is about no effect; nearly all actives have a fitted effect of over 55% in size
# Details: yeast TDP-43 toxicity rescue, BacTiter-Glo growth, 24 h; series mostly up to 46.1 µM; growth rescue (activation): at the top concentration
# In short: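 TDP-43-expressing yeast, pregrown in raffinose, seeded at OD600 0.02 in galactose medium with compound for 24 hr at 30 deg C. Growth read by BacTiter-Glo luminescence, so rescue of toxicity appears as activation.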
row,Structure (SMILES),growth rescue (activation)
1,COc1ccc(CC(=O)NCC(=O)N/N=C/c2cc(Br)ccc2OC)cc1,inactive: 9.16%
2,Cc1noc(C)c1C(=O)N1CCC1(C)C(=O)NS(=O)(=O)Cc1cccc(Cl)c1 (stereo unspecified),inactive: 4.02%
3,O=C(CC1C(=O)NCCN1CC(c1ccccc1)c1ccccc1)NCCc1cn[nH]c1 (stereo unspecified),inactive: 16.7%
4,CCOc1ncccc1C(=O)OCC(=O)Nc1ccc(Cl)cn1,inactive: 29.1%
5,CCN(CC(=O)NC1CCCC1)S(=O)(=O)c1ccc(Br)cc1,inactive: -11.7%
6,O=C1C2C(c3ccccc3)C=CC(c3ccccc3)C2C(=O)N1c1cccnc1 (stereo unspecified),inactive: 7.58%
7,Cc1cc(NC(=O)C2CC(=O)N(c3cccc(Cl)c3)C2)no1 (stereo unspecified),inactive: 4.44%
8,Nc1ccc(S(=O)(=O)Nc2nccc(/C=C/c3ccc(Cl)cc3Cl)n2)cc1,inactive: -19.3%
9,COc1ccc(/C=N/NC(=O)c2cccnc2)cc1COc1ccc(NC(C)=O)cc1,inactive: 10.4%
10,NC(=O)c1cc(-c2ccccc2)sc1NC(=O)CN1CCCCC1,inactive: 1.43%
11,COc1ccccc1C1(O)C(=O)Nc2ccccc21 (stereo unspecified),inactive: -1.26%
12,CCn1ccnc1CN(C)Cc1cn[nH]c1-c1ccc(F)cc1F,inactive: -7.42%
13,O=C(CCl)NCCN1C(=O)S/C(=C\c2cccnc2)C1=O,inactive: -13.9%
14,CC(=O)OC(C(=O)NC1CCCCC1)c1ccccc1F (stereo unspecified),inactive: 0.491%
15,CCN(CC)S(=O)(=O)c1ccc2oc(SCc3ccc(F)cc3)nc2c1,inactive: -3.52%
16,O=C(NC1CCCCC1)c1cccnc1Sc1ccccc1Cl,inactive: 16.9%
17,Clc1ccc(-c2nc(NCCCN3CCOCC3)c3ccccc3n2)cc1,inactive: 9.08%
18,O=C(N/N=C/c1ccc(O)c(O)c1)N/N=C/c1ccc(O)c(O)c1,inactive: -11.6%
19,CC(=O)Nc1ccc(N(C(=O)Cc2cccs2)C(C(=O)NC2CCCC2)c2ccncc2)cc1 (stereo unspecified),inactive: 4.14%
20,CCCc1ccc(-c2cc(C(=O)NC3=NCCS3)c3ccccc3n2)cc1,inactive: 5.88%
21,COc1cc2c(cc1OC)CN(C1CCC(C(C)(C)C)CC1)CC2 (stereo unspecified),inactive: -11.2%
22,Cc1ccc(-n2c(SCC(=O)O)nc3sc4c(c3c2=O)CCCC4)cc1,inactive: 5.95%
23,O=C(CN1C(=O)NC2(CCCC2)C1=O)Nc1ccc(Cl)cc1F,inactive: 5.9%
24,NC(CCC(=O)O)C12CC3CC(CC(C3)C1)C2 (stereo unspecified),inactive: 0.76%

row,Structure (SMILES),growth rescue (activation)
1,Nc1nnc(SCc2cn3cc(Cl)ccc3n2)s1,inactive: 10.4%
2,CC(C)Cn1cc(-c2cncc3nccn23)cn1,inactive: 6.26%
3,O=C(CCc1nnc(C2(c3ccc(Cl)cc3)CCC2)o1)NC1CC1,inactive: 10.2%
4,CCC1CCCCN1CCCNC(=O)c1ccc2c(c1)N(Cc1ccccc1)C(=O)c1ccccc1S2(=O)=O (stereo unspecified),inactive: 10.8%
5,Cc1ccc(CN(CC(=O)NC(C)(C)C)C(=O)CNC(=O)c2cccs2)cc1,inactive: 2.26%
6,CCC(CC)NC(=O)/C=C/c1ccccc1Cl,inactive: -31.9%
7,CCc1ccc(NC(=O)c2cnn3c(C(F)F)cc(C)nc23)cc1,inactive: 17.1%
8,CNCCCOc1ccc(Cl)cc1C(C)(C)C,inactive: 1.67%
9,Cc1nc2ccccc2c(=O)n1NC(=O)/C=C/c1ccccc1,inactive: 2.49%
10,N#Cc1cnc(SCC(=O)NNC(=O)COc2cccc3ccccc23)nc1N,inactive: 4.74%
11,COc1cc(/C=C2/SC(=S)N(C)C2=O)ccc1OC(=O)c1ccco1,inactive: 7.83%
12,CC(C)OC(=O)c1cn(-c2ccccc2)nc1-c1ccco1,inactive: 29.4%
13,O=C(COc1ccccc1)NC(=S)Nc1ccc2c(c1)Cc1ccccc1-2,inactive: 5.78%
14,CN(C)N=Nc1ccc(S(N)(=O)=O)cc1,inactive: 4.48%
15,O=C(Nn1c(-c2ccc(F)cc2)nc2ccccc2c1=O)c1cccnc1,inactive: -14.5%
16,CN(C)C(=O)CN1CCN(c2nc3nonc3nc2N2CCCCC2)CC1,inactive: -11%
17,O=C(Cn1nc(-c2cccc([N+](=O)[O-])c2)c2ccccc2c1=O)NCC1CCCO1 (stereo unspecified),inactive: -1.16%
18,CCc1cccc(NC(=O)C(NC(=O)C2CCCCC2)C(C)C)c1 (stereo unspecified),inactive: -14.9%
19,O=C(COc1nc2ccccc2nc1N1CCOCC1)NCC(F)(F)F,inactive: -5.92%
20,COc1ccc(N(C)S(=O)(=O)c2cccc(C(=O)Nc3ccc4c(c3)OCCO4)c2)cc1,inactive: 11.7%
21,Cc1cc(C)cc(N2CC(C(=O)Nc3cc(C)on3)CC2=O)c1 (stereo unspecified),inactive: 15.2%
22,Cc1cccc(NC(=O)C2CCN(S(=O)(=O)c3c(C)noc3/C=C/c3ccco3)CC2)n1,inactive: -6.55%
23,CN1CCc2nc(NC(=O)COc3ccc4ccccc4c3)sc2C1,inactive: 1.38%
24,CCN(CC)S(=O)(=O)c1ccc(N/N=C/c2cc(OC)ccc2O)nc1,inactive: -6.6%

row,Structure (SMILES),growth rescue (activation)
1,Cc1[nH]c2ccccc2c1C(C[N+](=O)[O-])c1ccco1 (stereo unspecified),inactive: 15.4%
2,c1cc(CNC2C3CC4CC(C3)CC2C4)ccn1 (stereo unspecified),inactive: -11.8%
3,COc1cccc(-c2noc(-c3cccnc3)n2)c1,inactive: 34.8%
4,Cc1cc(C)nc(-n2nc(C)cc2NC(=O)c2ccc(F)cc2F)n1,inactive: 13.7%
5,COc1ccc(NC(=O)CSc2nnc(CNc3ccc(C)cc3)n2C)cc1,inactive: -3.79%
6,Cc1ccc(N(CC(=O)NCc2ccco2)C(=O)CCC(=O)Nc2nccs2)c(C)c1,inactive: 11.6%
7,CCOC(=O)c1cnc2c(cnn2C)c1NCc1ccc(OC)cc1,inactive: 11%
8,Cc1nn(CCO)c2ncc(C(=O)c3cc(Cl)ccc3O)cc12,inactive: 12%
9,Cc1ccc(NC(=O)Cc2c(Cl)cccc2Cl)cc1S(=O)(=O)N(C)C,inactive: 8.83%
10,CC(=O)COc1ncnc2c(Cl)cc(Cl)cc12,inactive: 9.8%
11,CCNC(=O)C1(C)CCCN(C(=O)c2sccc2C)C1 (stereo unspecified),inactive: 8.59%
12,CCc1ccc(C2C(C#N)=C(N)OC3=C2C(=O)CCC3)s1 (stereo unspecified),inactive: 5.21%
13,O=C(c1nc2ccc(Cl)cn2c1CNCCc1cnccn1)N1CCCCCCC1,inactive: 9.69%
14,Cn1cccc1CNC(=S)Nc1ccccc1F,inactive: -68.5%
15,CCCCNC(=O)COC(=O)c1c2c(nc3ccccc13)/C(=C\c1cccs1)CC2,inactive: 25.5%
16,CCCSc1ncc(Cl)c(C(=O)Nc2ccc(S(=O)(=O)N3CCCCC3C)cc2)n1 (stereo unspecified),inactive: 16.1%
17,CC(=O)Nc1ccc(S(=O)(=O)NCc2nc(-c3ccccc3C)no2)cc1,inactive: -7.53%
18,COc1ccc(/C=N/NC(=O)CCn2nc(C)cc2C)cc1,inactive: 5.94%
19,NS(=O)(=O)c1ccc(CCNC(=O)Cc2ccc(S(=O)(=O)N3CCCC3)s2)cc1,inactive: 10.2%
20,CC1(C)CC(=O)C(CC(=O)N2CCC(Cc3ccccc3)CC2)C(=O)C1,inactive: 0.17%
21,O=C(O)c1ccc(CN2C[C@@H](CO)O[C@@H](n3cnc4c(NCc5ccco5)ncnc43)C2)cc1,inactive: -3.2%
22,COCCNC(=O)CCCC(=O)NCCOC,inactive: 7.01%
23,COc1ccc(NC(=O)COc2ccccc2Cc2ccccc2)cc1S(=O)(=O)N1CCOCC1,inactive: 23.6%
